Measured values as given in PubChem BioAssay AID588342 (National Center for Advancing Translational Sciences (NCATS), 2011).
About 25,000 (6.9%) of roughly 360,000 compounds were called active. The shares of active, inactive and inconclusive entries below differ from those in the screen. Calls come from the whole dose curve; as a rule, active = well fitted inhibition curve with a large enough effect; inconclusive = small, poorly fitted or top-dose-only effect; inactive = flat fitted curve, though single readings scatter. Potencies beside an inconclusive call are fits to weak or partial responses and may not hold up.

Target: Luciferin 4-monooxygenase (Photinus pyralis) (UniProt P08659)
Assay: qHTS profiling assay for firefly luciferase inhibitor/activator using purifed enzyme and Km concentrations of substrates (counterscreen for miR-21 project); note: nearly all actives have a fitted effect of over 55% in size
Conditions: purified FLuc, luminescence inhibition; series mostly up to 57.5 µM
Procedure, shortened: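 Purified P. pyralis luciferase (10nM final) with 10uM D-luciferin and 10uM ATP (Km levels) in 50mM Tris acetate pH 7.5, 10mM Mg acetate, 0.01% Tween-20, 0.05% BSA; qHTS 6-point titration, ~60 µM downward; luminescence read.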
Potency is the fitted concentration of half-maximal effect; tags give direction and shape of the fitted curve.

Chain of UniProt P08659 (P08659 whole entry, looked up): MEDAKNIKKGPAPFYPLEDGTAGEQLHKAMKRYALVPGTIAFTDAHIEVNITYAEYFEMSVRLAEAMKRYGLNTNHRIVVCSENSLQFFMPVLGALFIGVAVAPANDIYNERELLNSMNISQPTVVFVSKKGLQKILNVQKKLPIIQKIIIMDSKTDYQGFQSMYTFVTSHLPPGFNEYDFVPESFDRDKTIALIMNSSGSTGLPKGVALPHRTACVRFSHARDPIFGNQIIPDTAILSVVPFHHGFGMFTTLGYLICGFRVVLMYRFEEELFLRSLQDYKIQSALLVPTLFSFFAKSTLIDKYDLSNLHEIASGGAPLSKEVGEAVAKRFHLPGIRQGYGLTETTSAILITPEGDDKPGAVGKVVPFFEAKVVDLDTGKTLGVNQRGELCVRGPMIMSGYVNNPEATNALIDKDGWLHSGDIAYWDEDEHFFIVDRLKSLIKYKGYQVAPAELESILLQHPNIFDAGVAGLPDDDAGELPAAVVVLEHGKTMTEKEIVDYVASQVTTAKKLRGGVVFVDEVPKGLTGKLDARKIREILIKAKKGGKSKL

Structure (SMILES)	Potency
O=C(CSc1cn(CC(=O)N2CCCC2)c2ccccc12)Nc1ccc(Cl)cc1	inconclusive: 21.3 µM [inhibitor, partial curve, poor fit]
S=c1[nH]cnc2sc(Nc3ccccc3)nc12	inconclusive: 23.9 µM [inhibitor, partial curve, poor fit]
CCOC(=O)/C(C#N)=C/c1ccc(SC)cc1	active: 13.5 µM
COc1ccc(-c2cn(-c3ccc(C)cc3)c(=O)n2CC(=O)Nc2ccc(OC)cc2OC)cc1	inconclusive: 37.9 µM [inhibitor, partial curve, poor fit]
CCOC(=O)CC(NC(=O)CCc1c(C)nc2c(-c3ccccc3)c(C)nn2c1C)c1ccc(OC(C)C)cc1 (centres undefined)	inconclusive: 21.3 µM [inhibitor, partial curve, poor fit]
O=C1N/C(=C/c2ccsc2)C(=O)N1c1ccccc1	inconclusive: 0.0151 µM [inhibitor, full curve]
CSc1ccc(CCNC(=O)NCc2noc3ccccc23)cc1	inconclusive: 15.1 µM [inhibitor, partial curve, poor fit]
Cc1nc2ccc(NC(=O)N3CCSCC3)cc2nc1C	inactive
O=C(Nc1ccc(Cl)cc1)Nc1ccccc1NS(=O)(=O)c1cccs1	inconclusive: 23.9 µM [inhibitor, single point]
Cc1cc(NC(=O)c2ccco2)ccc1NC(=O)c1ccco1	inconclusive: 21.3 µM [inhibitor, single point]
COc1cccc2sc(N(Cc3cccnc3)C(=O)c3ccc4c(c3)OCCO4)nc12	inconclusive: 37.9 µM [inhibitor, single point]
CCN1C(=O)c2ccc(C(=O)Nc3nccs3)cc2C1=O	inconclusive: 16.9 µM [inhibitor, partial curve]
C#CCn1cnc2c(cnn2-c2ccc(C)c(C)c2)c1=O	inconclusive: 21.3 µM [inhibitor, partial curve]
COc1ccccc1/C=C/C(=O)NCC(=O)N/N=C(/C)c1ccc(Cl)cc1	inconclusive: 23.9 µM [inhibitor, partial curve, poor fit]
COC(=O)c1sc(NC(=O)c2cc(C)on2)nc1C	inconclusive: 30.1 µM [inhibitor, partial curve, poor fit]
O=C(COc1ccccc1Cl)NCCCNC(=O)c1cnccn1	inactive
COc1ccc(CC(=O)OCC(=O)c2c[nH]c3ccccc23)cc1	inconclusive: 21.3 µM [inhibitor, partial curve]
COc1ccc(NC(=O)C2CCN(S(=O)(=O)c3cccc(-c4noc(C)n4)c3)CC2)cc1OC	inactive
Cc1c(C(=O)NCc2ccccn2)oc2ccc(Br)cc12	inconclusive: 26.9 µM [inhibitor, single point]
Cc1cc(C(F)(F)F)n2ncc(-c3ccc(F)cc3)c2n1	inactive
Cc1ccccc1OCCn1cc(C(=S)N2CCN(C)CC2)c2ccccc21	inconclusive: 37.9 µM [inhibitor, partial curve, poor fit]
CCC(=O)Oc1ccc(C(=O)Nc2ccccc2C(=O)NCC(C)C)cc1	inconclusive: 26.9 µM [inhibitor, single point]

Structure (SMILES)	Potency
CC(C)=NNc1nc2sc3c(c2c(=O)[nH]1)CC(C)(C)OC3	active: 15.1 µM
Cc1ccc(S(=O)(=O)N2CCCCC2)cc1NC(=O)CSc1ccc2c(c1)OCCO2	inconclusive: 21.3 µM [inhibitor, partial curve, poor fit]
Cc1ccc(C)c(NC(=O)CN2CCSc3ccc(S(=O)(=O)N4CCCC4)cc32)c1	inactive
O=C(O)/C=C/C(=O)Nc1ccc(SC(F)(F)F)cc1	inconclusive: 26.9 µM [inhibitor, single point]
CSc1ccc(CC(=O)N2CCC(n3nccc3NC(=O)C3CC3)CC2)cc1	inconclusive: 30.1 µM [inhibitor, single point]
CCCCCn1c(=O)[nH]c2cc(C(=O)Nc3ccc(F)c(F)c3)ccc2c1=O	inactive
Cc1nc(/C(N)=N/OC(=O)c2cccc(Cl)c2)c(C(F)(F)F)o1	inconclusive: 26.9 µM [inhibitor, single point]
O=C(NC1CC1)c1sc2cc([N+](=O)[O-])ccc2c1Cl	inconclusive: 26.9 µM [inhibitor, partial curve, poor fit]
Cc1cccc(NC(=O)c2cc(S(=O)(=O)NCCc3ccccc3)ccc2F)c1C	inactive
CCCNC(=O)CSc1nc2ccc(OCC)cc2s1	inconclusive: 23.9 µM [inhibitor, partial curve, poor fit]
O=C(c1ccc2c(=O)n(Cc3ccccc3Cl)c(=S)[nH]c2c1)N1CCOCC1	inactive
COc1ccc(-c2nc(C#N)c(NCC3CCCO3)o2)cc1OC (centres undefined)	inconclusive: 21.3 µM [inhibitor, single point]
Cc1ccc(/C=C/C(=O)N(Cc2cccs2)C2CCS(=O)(=O)C2)cc1 (centres undefined)	inactive
Cc1ccc(-n2nc(-c3ccccc3)cc2Nc2ccccc2N)cc1	inconclusive: 30.1 µM [inhibitor, single point]
O=C(CCc1c[nH]c2ccccc12)NCCc1ccc2c(c1)OCCO2	inconclusive: 37.9 µM [inhibitor, partial curve, poor fit]
COCCCNC(=O)c1cc2cc(S(=O)(=O)N3CCCCC3)ccc2n1C	inactive
Cc1cc(/C=C(\C#N)C(=O)O)c(C)n1-c1ccc(Br)cc1	active: 16.9 µM
O=C(O)CN1C(=O)/C(=C/c2ccccc2Cl)Oc2ccccc21	inconclusive: 37.9 µM [inhibitor, single point]
CCN(CC)C(=O)c1ccc2nc(-c3ccccc3)c(-c3ccccc3)nc2c1	inactive
Cc1ccc(NC(=O)/C(C#N)=C/c2ccc(-c3ccc(Cl)c(C(=O)O)c3)o2)cc1C	active: 3.79 µM
O=C(Oc1ccc(C(=S)N2CCOCC2)cc1)c1ccccc1	inconclusive: 37.9 µM [inhibitor, partial curve, poor fit]
CC(C)(C)c1ccc(/C=C/C(=O)Nc2ccc(S(N)(=O)=O)cc2)cc1	inconclusive: 21.3 µM [inhibitor, partial curve, poor fit]
